In all, about 310,000 compounds went through this assay and about 14,000 (4.5%) showed an effect of 50% or more. Effects have a minus sign here. The list shows a part of the results.

We go through 44 compounds from publication PMC4336329 (PLoS ONE, 2015).
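Further: peak tail current of the secondary pulse compared with the same well before compound.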

Sequence of human ether-à-go-go-related gene (hERG) potassium channel (Q12809 whole entry, looked up): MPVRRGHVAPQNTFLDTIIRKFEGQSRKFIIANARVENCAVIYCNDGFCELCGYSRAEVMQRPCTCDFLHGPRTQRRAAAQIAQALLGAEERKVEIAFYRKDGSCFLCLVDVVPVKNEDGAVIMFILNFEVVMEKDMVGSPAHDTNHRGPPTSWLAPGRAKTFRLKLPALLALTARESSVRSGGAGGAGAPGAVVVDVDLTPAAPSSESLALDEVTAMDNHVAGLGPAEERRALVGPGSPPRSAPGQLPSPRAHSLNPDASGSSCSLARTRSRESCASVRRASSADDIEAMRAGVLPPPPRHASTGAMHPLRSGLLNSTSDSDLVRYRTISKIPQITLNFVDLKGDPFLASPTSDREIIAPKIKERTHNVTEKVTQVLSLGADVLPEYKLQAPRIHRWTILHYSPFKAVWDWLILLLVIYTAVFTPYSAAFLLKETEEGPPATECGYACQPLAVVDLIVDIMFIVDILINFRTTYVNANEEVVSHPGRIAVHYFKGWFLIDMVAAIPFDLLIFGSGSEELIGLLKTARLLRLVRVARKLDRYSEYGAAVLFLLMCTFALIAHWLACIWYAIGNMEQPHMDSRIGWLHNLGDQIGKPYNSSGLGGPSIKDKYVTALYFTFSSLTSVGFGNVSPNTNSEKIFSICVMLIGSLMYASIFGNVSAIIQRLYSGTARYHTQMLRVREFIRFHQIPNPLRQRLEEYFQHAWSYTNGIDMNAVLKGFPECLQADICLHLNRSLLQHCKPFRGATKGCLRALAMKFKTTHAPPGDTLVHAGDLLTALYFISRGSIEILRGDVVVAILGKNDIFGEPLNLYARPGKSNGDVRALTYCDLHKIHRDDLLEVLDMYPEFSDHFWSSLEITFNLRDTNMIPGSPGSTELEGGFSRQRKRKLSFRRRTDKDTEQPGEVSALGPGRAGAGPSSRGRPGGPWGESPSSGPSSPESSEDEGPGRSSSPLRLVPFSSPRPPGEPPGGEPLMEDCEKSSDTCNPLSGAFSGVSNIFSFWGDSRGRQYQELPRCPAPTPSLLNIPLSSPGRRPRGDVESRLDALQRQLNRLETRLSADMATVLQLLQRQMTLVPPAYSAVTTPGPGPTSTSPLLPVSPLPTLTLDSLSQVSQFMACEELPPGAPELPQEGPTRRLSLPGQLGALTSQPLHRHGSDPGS

This assay has as its target human ether-à-go-go-related gene (hERG) potassium channel (human, UniProt Q12809). The assay is described as follows: primary screen, population patch clamp on CHO cells stably expressing hERG.
As to `CCCCCCCc1c(O)nc(SCCN(C)C)[nH]c1=O.Cl`, the “hERG current change (%, negative = inhibition) at 10uM” value is given as -5.87%.
Consider `Cl.O=C(OCCN1CCOCC1)C1(c2ccccc2)CCCCC1`, for which the “hERG current change (%, negative = inhibition) at 10uM” value is reported as -12.1%.
The value for `COc1nc(OCCNS(=O)(=O)c2ccc(C)cc2)nc(N(C)C)n1` was 2.52%.
The value for `Clc1ccc(N/N=C/c2cccs2)nn1` was 7.59%; that for `CCOc1cc(C(=O)Nc2cc(C(=O)OC)ccc2C)ccc1OCC(=O)N1CCOCC1` was -7.66%; that for `Cn1c(=O)oc2cc(S(=O)(=O)CCC(=O)N3CCN(c4ccccc4F)CC3)ccc21` was 1.03%.
In the case of `COc1nc(NCc2ccco2)nc(N2CCC(C)CC2)n1`, the “hERG current change (%, negative = inhibition) at 10uM” value was -7.48%.
Consider `O=C(CSc1nnc(-c2ccccc2)n1Cc1ccco1)NCc1ccc2c(c1)OCO2`, for which the “hERG current change (%, negative = inhibition) at 10uM” value is -14.5%.
The value for `COCCn1c(=S)[nH]c2cc(C(=O)N(CCO)Cc3ccccc3)ccc2c1=O` was 4.32%; that for `Cc1oc(CC(C)C)cc1C(=O)Nc1ccc(C(=O)O)cc1` was 4.88%.
As for `CCn1cc(C(=O)NCc2ccc(C)o2)c2cc(OC)c(OC)cc2c1=O`, the “hERG current change (%, negative = inhibition) at 10uM” value was 6.1%.
For the compound `COC(=O)Nc1sc2c(c1C(=O)NCc1ccco1)CCCC2`, the “hERG current change (%, negative = inhibition) at 10uM” value was -8.12%.
The value for `CCS(=O)(=O)c1ncc(Cl)c(C(=O)Nc2ccc(S(=O)(=O)N3CCC(C)CC3)cc2)n1` was 14.9%.
For `COc1ccc(-c2nc(CS(=O)CC(=O)NC3CCCCC3C)c(C)o2)cc1OC` (centres unmarked), the “hERG current change (%, negative = inhibition) at 10uM” value was found to be 20.1%.
On to `CCCCC1=CC2=C(c3ccco3)C(=O)C(C)(OC(=O)c3ccc(OC)cc3)C(=O)C2=CN1CC1CC1` (centres unmarked), for which the “hERG current change (%, negative = inhibition) at 10uM” value is 17.4%.
The value for `CC(/C=C1\SC(=O)N(CC(=O)Nc2ccc(O)cc2)C1=O)=C\c1ccccc1` was -2.14%.
The value for `COc1ccc(Cl)cc1S(=O)(=O)N1CCCC(C(=O)NCCc2ccccc2)C1` (centres unmarked) was -1.76%; that for `CCOC(=O)c1c(NC(=O)c2c(C(=O)O)cccc2[N+](=O)[O-])sc2c1CCCC2` was 13.2%; that for `Cc1cc(C)n(C(=O)c2cccc([N+](=O)[O-])c2)n1` was -5.46%.
The value for `O=C(CC(Nc1ccccc1Cl)C(=O)OCC(=O)c1cccs1)c1ccccc1` (centres unmarked) was 3.93%; that for `CCCCC(CC)C(=O)NCc1ccccc1OC` (centres unmarked) was -25.3%; that for `CCc1nnc(NC(=O)c2cc([N+](=O)[O-])ccc2N2CCOCC2)s1` was -15%.
As to `COc1cc(NC(=O)[C@@H]2CCCN(S(=O)(=O)c3cccc4cccnc34)C2)cc(OC)c1OC`, the “hERG current change (%, negative = inhibition) at 10uM” value is reported as -3.26%.
The value for `CCOC(=O)Cn1c(=N)n(CCOc2ccc(OC)cc2)c2ccccc21.Cl` was -56.4%; that for `COc1cc(OC)cc(C(=O)NC2CCN(Cc3nnnn3Cc3cccs3)CC2)c1` was -49.7%; that for `C=CCn1c(N)cc(=O)nc1SCC(=O)Nc1ccc2ccccc2c1` was 9.79%.
The value for `COc1ccc(CN2CCCCC2C(=O)Nc2ccc(OC)c(OC)c2)cc1OC` (centres unmarked) was -32.7%; that for `O=S(Cc1ccccc1)CC(O)(c1ccc(Cl)cc1)c1ccc(Cl)cc1` (centres unmarked) was -10.2%.
With `COC(=O)c1ccccc1S(=O)(=O)N1CCC(C(=O)NCCC2=CCCCC2)CC1`, the “hERG current change (%, negative = inhibition) at 10uM” value is on record as -26.8%.
For `O=c1c2c(nc3nc[nH]n13)CCC2`, the “hERG current change (%, negative = inhibition) at 10uM” value is recorded as -5.27%.
Regarding `Cc1cc(=O)[nH]c(Cc2ccc(OC(C)C)cc2)n1`, the “hERG current change (%, negative = inhibition) at 10uM” value was 6.94%.
For the compound `Fc1cccc(-c2cc3nc4c(c(N5CCC6(CC5)OCCO6)n3n2)CCCC4)c1`, the “hERG current change (%, negative = inhibition) at 10uM” value is -2.48%.
Turning to `COc1ccc([N+](=O)[O-])cc1NC(=O)c1ccc(CN(c2ccccc2)S(C)(=O)=O)cc1`, the “hERG current change (%, negative = inhibition) at 10uM” value is recorded as 0.0353%.
On to `Cn1nccc1C(=O)OCC(=O)Nc1cccc(Cl)c1`, for which the “hERG current change (%, negative = inhibition) at 10uM” value is -8.23%.
Turning to `Cc1cccc(OCC(=O)N2CCN(Cc3ccncc3)CC2)c1.O=C(O)C(=O)O`, the “hERG current change (%, negative = inhibition) at 10uM” value came out at 8.94%.
Regarding `COc1ccc2c(c1)[C@@H]1[C@H](CO2)[C@H](c2ccccc2)[C@]2(C)C(=O)Nc3ccc(C)cc3C(=O)N12`, the “hERG current change (%, negative = inhibition) at 10uM” value is recorded as -19.3%.
With `COc1ccccc1OCC(=O)N1CCCC(N(C)Cc2ccccc2)C1` (centres unmarked), the “hERG current change (%, negative = inhibition) at 10uM” value was -45.3%.
For `CCc1nnc(NS(=O)(=O)c2ccc(NC(=O)c3cccc(Br)c3)cc2)s1`, the “hERG current change (%, negative = inhibition) at 10uM” value is listed as 13.7%.
The value for `COc1ccc(N(CC(=O)Nc2ccccc2C(=O)NCc2ccco2)S(C)(=O)=O)cc1` was -14.6%; that for `CCc1ccc(NC(=O)CSCc2ccc(C(=O)O)cc2)cc1` was -5.93%.
Turning to `O=C(NCC1CCCO1)c1ccccc1-c1nc(-c2ccc(Cl)cc2)no1` (centres unmarked), the “hERG current change (%, negative = inhibition) at 10uM” value is -28.3%.
For the compound `O=C(CNC(=O)c1ccc(Br)cc1)c1ccc(Br)cc1`, the “hERG current change (%, negative = inhibition) at 10uM” value is listed as 21.9%.
The value for `CCN(CCNC(=O)CN1CCN(Cc2ccc(Cl)cc2)C1=O)c1ccccc1` was -52%.
The value for `CC1CCCN(CC(=O)N2CCCc3ccccc32)C1.[O-][Cl+3]([O-])([O-])O` (centres unmarked) was -4.32%.
